Measurements reported in the supplement of paper PMC3334620.
The full ranking holds about 33,000 sequences; the median of “E-score (-0.5 to 0.5)” is about -0.01, and the highest 2% start at about 0.26. The list shows a part of the results.

target: Ste12 (UniProt P13574); test: PBM E-score (8-mer binding enrichment) (E-score (-0.5 to 0.5)); higher = stronger / more preferred TF binding; most listed sequences are background and not binding sites; settings: protein concentration: 200 nM; construct: GST-DNA-binding domain
Summary of the method: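 Bound GST-tagged yeast transcription factors, applied at about 100-200 nM to double-stranded universal all-10-mer Agilent arrays, were detected with fluorescent anti-GST. Scans were normalised with masliner. A modified Wilcoxon-Mann-Whitney statistic, the E-score, was assigned to each ungapped eight-base word pooled with its reverse complement by the Universal PBM Analysis Suite.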

| Sequence | PBM E-score |
| --- | --- |
| AAAACTGG | 0.202 |
| ACCTCGCC | -0.1 |
| ACTGCATG | -0.0112 |
| TCAGTTAA | 0.125 |
| GTCGGACA | -0.0157 |
| TGGAGACA | -0.068 |
| CAAGCAAA | 0.108 |
| CCATCTGA | 0.0902 |
| TTCAAAAA | 0.298 |
| TAAGCTTA | 0.0706 |
| CACACATC | -0.135 |
| CCAGTGTA | -0.013 |
| GCTTTAGA | -0.0332 |
| AGGATATA | 0.135 |
| ACAGCATG | 0.00216 |
| AATAGCCT | -0.0125 |
| ACTGGGGG | -0.257 |
| AATTGCGG | 0.112 |
| GTTCGAGA | 0.0223 |
| ATAAAGCC | 0.00222 |
| CACAAGGA | 0.0239 |
| AGAATATG | 0.174 |
| GCCGTCAC | 0.173 |
| CTATTCTA | 0.00544 |
| AACTTCCT | 0.0495 |

| Sequence | PBM E-score |
| --- | --- |
| CAGTAGAA | 0.0734 |
| CGGGTGAC | -0.134 |
| GCGACGCC | 0.0944 |
| CTTACAAC | 0.0334 |
| CTGAGCAG | -0.025 |
| CGTTTACC | 0.0996 |
| GATCCAAC | -0.0314 |
| CCCTATAG | -0.147 |
| GTAGTAAC | -0.118 |
| AACGCCGC | 0.0583 |
| CAGAACTC | -0.0265 |
| AATGATGG | 0.112 |
| AATTCCCG | 0.0685 |
| AGGGACTA | -0.124 |
| ATGGTGAC | -0.0986 |
| AGGTATCC | -0.129 |
| ACATACAC | 0.0702 |
| CAAGAATG | 0.196 |
| GATAACAC | 0.108 |
| ATCAGGGC | -0.308 |
| GCGTGCGA | -0.107 |
| GGAGGAAA | -0.062 |
| GTGCTGCA | -0.143 |
| CCCGGAGA | 0.0998 |
| CGTGAAAA | 0.22 |

| Sequence | PBM E-score |
| --- | --- |
| GCTGACGA | -0.106 |
| CTTCATCA | -0.0587 |
| CGATAGGC | 0.0174 |
| GTCTGCAC | -0.0368 |
| TAGCTGAA | -0.00389 |
| AGCTTAAG | -0.0476 |
| AAAGAGCC | -0.192 |
| ATGGCCTG | -0.246 |
| CTTTGCTC | -0.0408 |
| ATGAGATG | -0.0425 |
| TACACTAA | -0.0223 |
| ACATCACG | -0.0724 |
| ACCGCCCC | 0.348 |
| CGATCAAC | -0.0827 |
| GCTATATA | 0.0653 |
| CCCCGCTC | -0.0318 |
| ACGGTCCA | -0.133 |
| GGACACGA | -0.247 |
| GGGTTTGA | 0.18 |
| ATTTCGGA | 0.181 |
| GTGTGTCA | 0.321 |
| GAAACCCC | 0.204 |
| AGGGCTGC | -0.199 |
| CATCAGAA | 0.0441 |
| CAGCGATG | -0.0741 |

| Sequence | PBM E-score |
| --- | --- |
| GAGCCAAC | -0.0708 |
| GAGTTGAC | -0.124 |
| ACCGGACT | -0.0995 |
| CAGTCCTA | -0.345 |
| AACTAGGC | -0.0922 |
| CGCTTCCG | -0.0583 |
| AGTTCCCG | -0.042 |
| AGCAAGAA | 0.0495 |
| AAGGACCA | -0.178 |
| ATATCGCA | -0.249 |
| AGCGGGAT | 0.0287 |
| CGTGGTCA | 0.00714 |
| ATAAAATG | 0.142 |
| AATATTAC | 0.118 |
| ACTCTGGC | -0.0309 |
| CAGTATCC | -0.0126 |
| CGGATAAC | 0.064 |
| GAACCGAC | 0.0126 |
| GGGCGCAC | -0.163 |
| CTCCCTAC | -0.0815 |
| ATTGACGC | -0.0124 |
| ACTTCGAA | 0.0671 |
| AGAGTCAT | 0.0713 |
| GCGCGTTA | -0.0248 |
| AGCGTCAA | -0.00106 |

| Sequence | PBM E-score |
| --- | --- |
| ATCATCGG | 0.0208 |
| ACCCCCAC | -0.222 |
| TAAGGGGA | -0.0231 |
| ATAACAAT | -0.00168 |
| CGGTATTA | 0.129 |
| GGAAGAGA | -0.0805 |
| CCGCCAGC | 0.119 |
| GAACGTCA | -0.212 |
| AGGATGAC | -0.253 |
| ATGGTCGA | -0.134 |
| ACACGTGT | -0.0438 |
| ACAGATGG | -0.086 |
| GGAGACTA | -0.0305 |
| CCGGGAGG | 0.128 |
| CGAAATGA | 0.0829 |
| CAGAAGGC | -0.0975 |
| CTGTTGGA | 0.0959 |
| AGACAGAA | 0.0471 |
| ATTGAGTA | 0.216 |
| ATTTCATG | -0.0384 |
| GATATGGC | -0.15 |
| AGACCAAT | -0.0443 |
| AGGGCGGG | 0.296 |
| TACTTGAA | 0.0634 |
| GCAGTACA | -0.0964 |

| Sequence | PBM E-score |
| --- | --- |
| AAGGCCAG | 0.128 |
| AGCGTACT | -0.145 |
| CTACCAAG | -0.135 |
| ATATGTTG | 0.0943 |
| CAACGAAG | -0.219 |
| GGAAATCA | -0.016 |
| CCCCAAAG | 0.00872 |
| AGGTGCAA | -0.0336 |
| GTCGAGAA | 0.00889 |
| ATGGACAG | -0.0851 |
| ATATCTCC | 0.15 |
| GTGAAGAA | 0.14 |
| ATTAAAAG | 0.137 |
| ATAAAGAC | -0.0448 |
| ACTTATAG | -0.0177 |
| AAGCGAGT | 0.117 |
| AAACGCGA | 0.24 |
| GTCGCGTA | 0.0487 |
| ATCGCCAT | -0.0463 |
| ATCCGCTC | -0.0924 |
| CATCTTGG | -0.0368 |
| CATCGGCA | 0.0301 |
| AGTGATAT | -0.143 |
| CGAAGTAC | -0.174 |
| GAAGGGGC | -0.0985 |

| Sequence | PBM E-score |
| --- | --- |
| TGAGAACA | 0.0626 |
| ACACACAC | 0.0546 |
| CGAGAATA | 0.155 |
| GGATTACA | -0.0011 |
| ACCGCAAA | -0.0527 |
| ATTCGGGA | -0.141 |
| CCATCGTA | -0.0808 |
| CCCGGGAA | 0.0209 |
| AATTCTTA | 0.112 |
| CTGGAGGC | -0.077 |
| AGTTTATC | 0.162 |
| CTTTGCCA | 0.0679 |
| ATTGCGGC | 0.141 |
| ATTATCTG | -0.00547 |
| GACAGACA | 0.102 |
| AACATGTC | 0.041 |
| ATTAACGA | 0.175 |
| CGACAACG | -0.13 |
| AACTGCGG | 0.0169 |
| CCGCCGAG | -0.114 |
| ATCTTACG | 0.00283 |
| AAGTTTGG | 0.158 |
| AATAGAGG | -0.0453 |
| AAATCGCT | -0.0741 |
| CAGTAGCC | -0.132 |

| Sequence | PBM E-score |
| --- | --- |
| AGAGTATG | -0.0802 |
| CGATACAG | 0.0754 |
| CCAATTTC | 0.0327 |
| AAGATCGC | -0.215 |
| CCGGGAAG | -0.0322 |
| CCGTCCGA | -0.218 |
| ACACGTCC | -0.112 |
| CCAGTGGG | -0.175 |
| GGTACTTA | -0.133 |
| ACCTTTGC | -0.0226 |
| ATAGAGTC | -0.217 |
| CATTGACG | 0.0435 |
| CCGTAGCA | -0.219 |
| GAACGAAA | 0.177 |
| AGGTTAAC | -0.123 |
| AAGAGTGT | -0.141 |
| CAAGAAGA | 0.0251 |
| AAAACCCG | 0.142 |
| CTATTCAC | 0.0597 |
| TGGTACCA | -0.0698 |
| ACGACATG | -0.088 |
| CAGCAATC | -0.0679 |
| GGGTTAGA | -0.0645 |
| CATCAACG | 0.0777 |
| ACATCACT | 0.00353 |

| Sequence | PBM E-score |
| --- | --- |
| GATAGGAC | -0.231 |
| CGCAAGAG | -0.108 |
| GGGGCTAC | -0.0752 |
| ACGGTACT | -0.192 |
| GGATAGAC | -0.108 |
| ACCTACAT | 0.0297 |
| AAGCGATC | -0.148 |
| TAATCCTA | -0.029 |
| AAACACAC | 0.243 |
| AACATGAT | 0.255 |
| CACGAACC | 0.00405 |
| CCCTGCAG | -0.0705 |
| CCTTCACG | -0.0235 |
| GGCCAAGA | -0.112 |
| CGTGAGAG | -0.313 |
| AACTAAGT | 0.0309 |
| ATGTGTCC | -0.019 |
| GGCTGGAA | -0.0751 |
| CGTTTTGC | 0.197 |
